# Laboratory results from PubChem BioAssay AID686978 (National Center for Advancing Translational Sciences (NCATS), 2013).
# Several values for one entry are separate records, joined by “and”; a condition that tells them apart may be missing. Identical values can stand only once. The campaign covered roughly 420,000 compounds. About 64,000 (15%) were called active. Inconclusive results, whose numbers are uncertain, are shown with a selection of clear calls. The call rests on the fitted dose curve; in most records, active means well fitted inhibition curve with a large enough effect; inconclusive means small, poorly fitted or top-dose-only effect; inactive means flat fitted curve, though single readings scatter. Potencies beside an inconclusive call are fits to weak or partial responses and may not hold up.
# Test: qHTS for Inhibitors of human tyrosyl-DNA phosphodiesterase 1 (TDP1): qHTS in cells in absence of CPT; further: nearly all actives have a fitted effect of over 55% in size
# Settings: DT40 Tdp1-/- hTDP1 cells, no CPT, ATP luminescence, 48 h; activity change, negative = growth inhibition: at 46.2 µM (top of the series) unless noted
# Procedure, shortened: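 Compound effects on proliferation are scored in DT40 Tdp1-/-;hTDP1 cells in the absence of CPT. ATP levels (CellTiter-Glo luminescence) are recorded after a ≥48 hr, 37 °C incubation.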
# On the % scale 0 is the no-effect control and ±100 the full control effect; potency means the concentration at half of the fitted maximal effect; tags describe the fitted curve by direction and shape.
SMILES,Potency,"activity change, negative = growth inhibition"
Cc1cc(C(=O)N/N=C/c2cc(Br)ccc2OC(=O)c2ccccc2)n[nH]1,active: 6.51 µM,
CCCC(=O)NC(C)c1nc2ccccc2n1C(C)C (centres undefined),"inconclusive: 23.1 µM [inhibitor, single point]",
Clc1ccccc1OCCCCn1ccnc1,"inconclusive: 18.4 µM [inhibitor, single point]",
N#Cc1cc(Oc2cccc3cccnc23)c(-n2nnc3ccccc32)cc1C#N,active: 7.94 µM,
CCn1c2ccccc2c2cc(C3C(C#N)=C(N)Oc4n[nH]c(COC)c43)ccc21 (centres undefined),active: 25.9 µM,
Cc1ccc(Cl)cc1N1CCN(C(=O)c2cn(C3CCCCC3)c(=O)c3c2c2ccccc2n3C)CC1,active: 18.4 µM,
CCCOc1ccc(N2C(=O)CC(N(CCc3ccc(OC)c(OC)c3)C(=S)Nc3ccccc3)C2=O)cc1 (centres undefined),"inconclusive: 29.1 µM [inhibitor, single point]",
COC(=O)c1[nH]c2ccccc2c1Sc1ccccc1,"inconclusive: 23.1 µM [inhibitor, single point]",
CS(=O)(=O)c1cnc2c(S(=O)(=O)c3ccccc3)cnn2c1N,,inactive: -3.15%
C#CCNC(=O)C[C@@H]1C[C@@]2(C(=O)OCC)CCCC=C2N(Cc2ccccc2)C1=O,,inactive: -17.6%
Cc1sc2nc3ccc(NCc4ccco4)nn3c(=O)c2c1C,active: 20.6 µM,
COCCNC(=S)N1CCc2cc(OC)c(OC)cc2C1COc1cc(C)cc(C)c1 (centres undefined),"inconclusive: 18.4 µM [inhibitor, single point]",
Cc1ccccc1-c1nc(CS(=O)CC(=O)NCc2ccc3c(c2)OCO3)c(C)o1 (centres undefined),"inconclusive: 23.1 µM [inhibitor, single point]",
Cc1cccc(NC(=O)c2ccc(NC(=O)c3ccccc3Br)cc2)c1,"inconclusive: 20.6 µM [inhibitor, single point]",
O=C(CSc1nnnn1-c1cccc(F)c1)NC1CCCCC1,,inactive: -8.27%
CC1Sc2ccc(S(=O)(=O)N3CCC(C(=O)NCc4ccc(Cl)cc4)CC3)cc2NC1=O (centres undefined),active: 14.6 µM,
CN1CC(c2ccccc2)C2(SC(=S)N(Cc3ccco3)C2=O)C12C(=O)Nc1ccccc12 (centres undefined),active: 11.2 µM,
Clc1ccccc1-c1nc(Nc2ccccc2)nc2ccc(Br)cc12,active: 18.4 µM,
Cc1cc(C(=O)Cn2nc(C(=O)O)c3ccccc3c2=O)c(C)n1-c1ccc(F)cc1,"inconclusive: 29.1 µM [inhibitor, partial curve]",
CC(C)Cn1c(N)c(C(=O)COC(=O)c2ccc(F)cc2)c(=O)n(C)c1=O,"inconclusive: 23.1 µM [inhibitor, partial curve]",
COc1cc(NC(=O)CSc2nnc3n2C(C)(C)Cc2ccccc2-3)cc(OC)c1,"inconclusive: 18.4 µM [inhibitor, single point]",
C/C(=N\NC(=O)c1cccc(S(=O)(=O)N2CCCC2)c1)c1ccccc1F,,inactive: -12.9%

SMILES,Potency,"activity change, negative = growth inhibition"
COCCNC(=O)CCC(=O)NNc1nc2ccccc2c2nc(-c3ccccc3)nn12,"inconclusive: 23.1 µM [inhibitor, single point] and inconclusive: 10.3 µM [inhibitor, partial curve]",
CCN(CC)C(=O)/C(=C/c1cccc([N+](=O)[O-])c1)NC(=O)c1ccco1,"inconclusive: 23.1 µM [inhibitor, single point]",
CCOc1ccccc1OCCCNCc1ccccc1,"inconclusive: 29.1 µM [inhibitor, single point]",
O=C(CSc1nnc(Cc2cccs2)n1Cc1ccco1)Nc1cccc(Cl)c1,"inconclusive: 29.1 µM [inhibitor, single point]",
COc1cccc(CC(=O)N2CCCC(CO)(Cc3ccc(F)cc3F)C2)c1 (centres undefined),"inconclusive: 18.4 µM [inhibitor, single point]",
O=C(Nc1ccn(CCCN(CCCn2ccc(NC(=O)OCc3ccccc3)nc2=O)CCc2cc3ccccc3[nH]2)c(=O)n1)OCc1ccccc1,"inconclusive: 29.1 µM [inhibitor, single point]",
CCN(C(=O)COC(=O)c1nc2nc(C)cc(C)n2n1)C1CCCCC1,,inactive: -1.89%
O=C(N/N=C/c1ccccc1O)NC12CC3CC(CC(C3)C1)C2,"inconclusive: 29.1 µM [inhibitor, single point]",
O=C(NC1CCCC1)c1c(O)nc2sccn2c1=O,,inactive: -26.2%
COc1ccc(NC(=O)c2cc3ccccc3cc2OC)cc1,"inconclusive: 29.1 µM [inhibitor, single point]",
COc1cccc(OCc2cc(C(=O)N3CCC(c4ccncc4)CC3)no2)c1,active: 8.2 µM,
Cc1ccc(S(=O)(=O)N[C@@H](Cc2ccccc2)C(=O)N2CCC[C@@H]2C(=O)O)cc1,,inactive: -6.5%
Cc1ccc(S(=O)(=O)Cn2nnnc2C(CC(C)C)N2CCN(C3CCCC3)CC2)cc1 (centres undefined),"inconclusive: 4.11 µM [inhibitor, partial curve, poor fit]",
COC(=O)/C=C/C(=O)N1CCN(c2ccccc2C)CC1,active: 16.4 µM,
O=C(NC1CCCc2c1cnn2-c1ccc(F)cc1F)c1cnccn1 (centres undefined),"inconclusive: 23.1 µM [inhibitor, single point]",
CC(C)C(=O)N1CCN(c2ccc(NC(=O)c3cccs3)cc2)CC1,"inconclusive: 16.4 µM [inhibitor, single point]",
Cc1ccccc1N1CCN(C(=O)c2ccccc2NC(=O)/C=C\C(=O)O)CC1,"inconclusive: 29.1 µM [inhibitor, single point]",
O=C(Nc1ccccc1N1CCN(C(=O)c2ccccc2)CC1)c1cc2ccccc2o1,active: 20.6 µM,
COc1cccc(CNC(=O)C(=O)NCCC2CCCCN2S(=O)(=O)c2ccccc2)c1 (centres undefined),"inconclusive: 25.9 µM [inhibitor, single point]",
CCCCC(CC)COC(=O)C(C#N)=C(c1ccccc1)c1ccccc1 (centres undefined),active: 18.4 µM,
COc1ccc([N+](=O)[O-])cc1NC(=O)CSCc1ccccc1,"inconclusive: 20.6 µM [inhibitor, single point]",
O=C(CCc1ccccc1)Nc1nnc(-c2cccs2)o1,,inactive: -18.7%
